Test results published in the supplement of paper PMC7125110.
± gives the standard error. Variants at the background level are over-represented here.

B1: glmS ribozyme (parent)
chain: AUAAAAGCGCCAGAACUACAGAAAUGUAGUUGACGAGGAGGAGGUUUAUCGAAUUUUCGGCGGAUGCCUCCAAA

Columns and labels:
Settings in all cases: with glucosamine-6-phosphate
glucosamine-6-phosphate [1] = variants of: B1; assay: self-cleavage kobs at 40 uM GlcN6P; higher = faster cleavage; RNA array
In short: (§1)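 Barcoded ribozyme variants, transcribed in situ by E. coli RNA polymerase on sequenced MiSeq chips, were followed via a hybridised Cy3 probe at 37 °C. Glucosamine-6-phosphate ranged from 40 μM to 10 mM in HEPES/KCl/Mg(OAc)2 buffer. kobs came from decay fits to per-tile medians, and kcat and KM from weighted Michaelis–Menten fits.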

glucosamine-6-phosphate [2] = variants of: B1; assay: self-cleavage kobs at 10000 uM GlcN6P; higher = faster cleavage; RNA array
In short: as §1

glucosamine-6-phosphate [3] = variants of: B1; assay: self-cleavage kobs at 640 uM GlcN6P; higher = faster cleavage; RNA array
In short: as §1

glucosamine-6-phosphate [4] = variants of: B1; assay: self-cleavage kobs at 160 uM GlcN6P; higher = faster cleavage; RNA array
In short: as §1

glucosamine-6-phosphate [5] = variants of: B1; assay: self-cleavage kobs at 2500 uM GlcN6P; higher = faster cleavage; RNA array
In short: as §1

Variant | self-cleavage kobs at 40 uM GlcN6P (glucosamine-6-phosphate [1]) [s⁻¹] | self-cleavage kobs at 10000 uM GlcN6P (glucosamine-6-phosphate [2]) [s⁻¹] | self-cleavage kobs at 640 uM GlcN6P (glucosamine-6-phosphate [3]) [s⁻¹] | self-cleavage kobs at 160 uM GlcN6P (glucosamine-6-phosphate [4]) [s⁻¹] | self-cleavage kobs at 2500 uM GlcN6P (glucosamine-6-phosphate [5]) [s⁻¹]
A33U C34U A39U C71G | < 1e-05 | < 1e-05 |  |  | 
A33U C50U | < 1e-05 |  |  |  | 
A33U G41U G44A | < 1e-05 |  |  |  | 
A33U G44A | < 1e-05 | < 1e-05 | < 1e-05 | < 1e-05 | 
A33U G51A | < 1e-05 |  |  |  | 
A33U G51C | < 1e-05 | < 1e-05 |  | < 1e-05 | < 1e-05
C34A A42G | < 1e-05 |  | < 1e-05 | < 1e-05 | < 1e-05
C34A A53U | < 1e-05 |  | < 1e-05 | < 1e-05 | 
C34A C61U | < 1e-05 | < 1e-05 | < 1e-05 | < 1e-05 | < 1e-05
C34A G40C A52C C61A G62U C68G | < 1e-05 | < 1e-05 |  |  | 
C34A G43U C68A | < 1e-05 |  |  | < 1e-05 | 
C34A G59A | < 1e-05 | < 1e-05 |  | < 1e-05 | < 1e-05
C34A U46A | < 1e-05 | < 1e-05 | < 1e-05 |  | < 1e-05
C34A U49A | < 1e-05 | < 1e-05 | < 1e-05 | < 1e-05 | 
C34A U56A | < 1e-05 |  |  | < 1e-05 | 
C34G A36G | < 1e-05 | < 1e-05 | < 1e-05 | < 1e-05 | < 1e-05
C34G A39C G43C G66C | < 1e-05 | < 1e-05 |  |  | 
C34G A48U U54C | < 1e-05 | < 1e-05 |  |  | 
C34G A52U | < 1e-05 | < 1e-05 | < 1e-05 | < 1e-05 | 
C34G A64G | < 1e-05 |  |  |  | 
C34G C58G | < 1e-05 | < 1e-05 | < 1e-05 | < 1e-05 | 
C34G G35A | < 1e-05 |  | < 1e-05 | < 1e-05 | < 1e-05

Variant | self-cleavage kobs at 40 uM GlcN6P (glucosamine-6-phosphate [1]) [s⁻¹] | self-cleavage kobs at 10000 uM GlcN6P (glucosamine-6-phosphate [2]) [s⁻¹] | self-cleavage kobs at 640 uM GlcN6P (glucosamine-6-phosphate [3]) [s⁻¹] | self-cleavage kobs at 160 uM GlcN6P (glucosamine-6-phosphate [4]) [s⁻¹] | self-cleavage kobs at 2500 uM GlcN6P (glucosamine-6-phosphate [5]) [s⁻¹]
C34G G43U | < 1e-05 | < 1e-05 | < 1e-05 | < 1e-05 | < 1e-05
C34G G59U | < 1e-05 | < 1e-05 | < 1e-05 | < 1e-05 | < 1e-05
C34G G60U | < 1e-05 |  |  |  | < 1e-05
C34G G62A | < 1e-05 |  | < 1e-05 |  | < 1e-05
C34G U47A G62U | < 1e-05 |  | < 1e-05 |  | 
C34G U54C | < 1e-05 |  |  | < 1e-05 | < 1e-05
C34U A42G C58A | < 1e-05 | < 1e-05 | < 1e-05 |  | < 1e-05
C34U C50A | < 1e-05 | < 1e-05 |  |  | 
C34U G37A | < 1e-05 | < 1e-05 |  |  | < 1e-05
C34U G41A C68A | < 1e-05 | < 1e-05 |  |  | 
C34U G43U | < 1e-05 |  | < 1e-05 |  | 
C34U G44U A52U | < 1e-05 | < 1e-05 | < 1e-05 | < 1e-05 | < 1e-05
C34U G66C | < 1e-05 | < 1e-05 | < 1e-05 |  | 
C34U U55A | < 1e-05 | < 1e-05 |  | < 1e-05 | 
C34U U55C | < 1e-05 | < 1e-05 | < 1e-05 | < 1e-05 | < 1e-05
C34U U57G | < 1e-05 |  | < 1e-05 |  | 
C34U U69A | 0.000116 ± 2.4e-05 |  | 0.00034 ± 0.00012 |  | 
G35A A64U | < 1e-05 | < 1e-05 | < 1e-05 | < 1e-05 | < 1e-05
G35A C50U | < 1e-05 |  |  | < 1e-05 | 
G35A C61A | < 1e-05 |  |  |  | < 1e-05
G35A C61G U65G C67A U69G | 6.66e-05 ± 2.3e-05 |  |  |  | 
